# Measurements published in PMC12136788.
# The other results are listed elsewhere or left out.
# T1: UNK ZnF1-3 (human, UniProt Q9C0B0 31-174)
# T1 sequence: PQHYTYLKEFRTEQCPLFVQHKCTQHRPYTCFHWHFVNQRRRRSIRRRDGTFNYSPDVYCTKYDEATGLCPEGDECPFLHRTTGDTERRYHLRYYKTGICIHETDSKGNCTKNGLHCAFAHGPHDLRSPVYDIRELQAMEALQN
# B1: 145604450_145604570_2147_3pUTR_ENSMUSG00000018199_ENSMUST00000159879|mouse|control|control (ssRNA)
# RNA: GGGAGUUCUACAGUCCGACGAUCCUCAGAGUAUUUGGACAUUAUUAAAACUGUCGUUUUCCAAUGAAGACAUUUAAGAAAAGAAACACUUCUCAUACAAGUGACAUGAUGUGAGGCUACUUAUACUCUGUAUCACACUUUCAGCAACAGAGGAUUGAGCAUCA
# B2: chr7:140404665:140404666:+_ENSG00000090266_ENST00000247866|hu_hu|hu_hu_hu_mus_False|58_88 (ssRNA)
# RNA: GGGAGUUCUACAGUCCGACGAUCUGCUCCUACUCGUCCAGAGAGUUUACACCUUCAGUCCUCGUCAUCAGGAGGGAUACCUAAUUCUUCAUCUGUCCACUGUGAAGGAUCUGGAUAUGAAAAGUGACCCAGCACAGCAUCCGACAACAGAGGAUUGAGCAUCA
# B3: chr7:141445308:141445309:+_ENSG00000106028_ENST00000265304|hu_hu|hu_hu_hu_mus_False|28_58 (ssRNA)
# RNA: GGGAGUUCUACAGUCCGACGAUCUAUGAUUGUUGUUGCUUGCCGCCUCACAUUGUUUUUAUCCAUGUACUCGCCAUAGUCUAUUUUCCCUUCCACAAAUAUACGAGACCCCUUUUUCACAUACUGAUAUGCCACAUCUCUGAGCAACAGAGGAUUGAGCAUCA
# B4: chr4:140556289:140556290:+_ENSMUSG00000036622_ENSMUST00000037055|mus_mus|mus_mus_mus_hu_False|68_68 (ssRNA)
# RNA: GGGAGUUCUACAGUCCGACGAUCGAUGGAGCUCACCAGGCCCCCUUUUGCCGUGCAGAACCCUGUGCGAGUCACCACUGCCAGGACGUGCGGUCCCACAUAGGCCCGGGCCUGCAAGAUGAGGGUCCCGCAGAAGAGUGUGUGCAACAGAGGAUUGAGCAUCA
# B5: chr5:28717518:28717519:+_ENSMUSG00000048271_ENSMUST00000114884|mus_mus|motif|central (ssRNA)
# RNA: GGGAGUUCUACAGUCCGACGAUCAGCAACAGGUGUAGAGGAGCAUCGGUUACCACUCAUCUCCAAAACAUGUGAAGGUGCGGUGGGGAGUUCACGGAGAUUACUGUUCCUGGGAGCAGUGGGUUGCAUCUGCUGCAUGGGCCGCAACAGAGGAUUGAGCAUCA
# B6: 25258235_25258355_2025_CDS_ENSG00000155592_ENST00000328086|human|control|control (ssRNA)
# RNA: GGGAGUUCUACAGUCCGACGAUCGUUCAACAAAGCAUCCAUGUCCUCAAAGAAGGCGCAGGGUUCUAGCAUGUGGCCAUUUCUCACCUUUCGAUAGCUUUUCUGGAGACUUUUGAACUUGGUUCGACACUGUUCUGGGGUUCUCAACAGAGGAUUGAGCAUCA
# Molecular target: T1, UNK ZnF1-3
# Assay: nsRBNS (natural sequence RNA bind-n-seq); RBNS binding buffer (assumed for nsRBNS): 25 mM Tris pH 7.5, 150 mM KCl, 3 mM MgCl2, 0.01% Triton X-100, 500 ug/ml BSA, 20 U/ml SUPERase-In, 4 C; UNK is unkempt and MSI1 is Musashi-1; names of the RNAs are library labels; protein concentration not given here; high values mean tight binding
row,Binder,binding signal
1,B1,0.708 enrichment R
2,B2,1.15 enrichment R
3,B3,0.627 enrichment R
4,B4,1.19 enrichment R
5,B5,1.69 enrichment R
6,B6,0.746 enrichment R
